Values marked as one replicate rest on one cluster of the flow cell; about a third of the high ones do not repeat.
System: ATP
Assay: switch fluorescence ratio, 500 uM ATP over buffer (Cy3 cluster intensity, sum of 5 cycles each) (fold (ratio)); higher = stronger signal-on switching upon ATP binding; sequences stand for … in TCGTCGGCAGCGTCAGATGTGTATAAGAGACAGTTTTTTTTTTTTTTTTTTTTTTTTT…TC
Settings: aptamer strand: ATP DNA aptamer (quencher-CACCTGGGGGAGTATTGCGGAGGAAGG + anchor), 100 nM annealed; ATP concentration: 500 uM; one replicate
Summary of the method: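 Per cluster, summed Cy3 intensity from the target cycles was divided by that from the buffer cycles to give the fluorescence ratio, then averaged per switch-domain sequence. Clusters outside 100-1000 RFU were excluded. The Cy3-labelled switching-strand clusters, on a modified Illumina MiSeq flow-cell, were annealed to 100 nM quencher-labelled ATP aptamer and imaged in selection buffer, then after 15 min with 500 uM ATP at 22 °C, for five cycles with NaOH stripping and re-annealing between them.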
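Further: ATP exposure 15 min at 22 °C before imaging.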

Sequence	switch fluorescence ratio
GTTGAGGTGG	1.26
CCAATGGTTT	0.991
AGTTTCGTC	0.96
TGCACGTGG	0.968
AGGCAATGA	1.4
AGGCTAGGCA	1.01
TACACCCGCA	1.21
CAAATGAGGA	1.03
CGGTTAAAGT	1.01
TGCGAGTGGA	1.03
CGTGACAGCC	1.06
GAGCTCCACG	1
GCTCCGGTCA	1.82
GAAGGGGTT	1.02
ACATACGCGT	1.23
AAGACACGTC	0.932
TGAGAAGAT	1.02
AATTAGGACC	1.01
TTTGCTACGC	1
TCGGTCGTGT	0.985
CAGAGAGTGT	1.01
GCGGAGTAGG	1.02
TCTTGCACTT	1.05
AAAAGTGGTT	1.03
TCTCGGTACG	1.11
TTTGTGTGAC	0.994

Sequence	switch fluorescence ratio
GCAGGTACT	1.07
GCGTGCTAGT	0.993
CGAGTCTCAT	1.01
AAGAATGTTT	0.986
AAAATAGGG	1.02
GAGGAAGCGG	1.02
AAGTTTCGTT	0.97
TTATGCCAAA	0.994
ATCTAGGGTA	0.963
AGGACCTGAC	2.52
TTTACGGAAT	1.12
GATAGATTGA	1.04
AAGGTATGTA	0.98
GTATGTCTCG	0.956
TACAATTTCA	1.04
CCGGCAACAA	4.46
TTTCTTAGGC	1.03
GAGGGAACGT	1.04
AAGTAGCGCA	1.01
GGTTAACGC	1.01
TAGTTCCACC	1.06
CGTGATGTAA	1.01
TTATCAAGT	0.966
GCGAATAAAA	1.09
ACTTGAGGCC	0.999
AGGTCGATAT	0.972

Sequence	switch fluorescence ratio
TTTATGGGC	0.989
AGCAGGTCGC	0.989
TCTGGAGGAT	0.992
GGTGGTTAGA	0.962
GTTACTTGTG	1.01
GCCGAAGGTA	1.03
GGAACGCCCC	1.21
CATAGGGGC	1.01
CAATAATGGG	0.991
ACGATCGTA	0.998
TCTTTTGTAC	1.19
ATACGCCACC	1.77
GTAGCAGATC	2.55
TGGACTATAA	1.03
CGACAGCCTG	0.882
TTAGTCGCCC	0.995
GAGCAGGCCT	0.999
TAAAGGCAA	1.1
TATTCGTACG	0.966
TACATGTAGA	1.05
ATATTTCGTT	0.998
AGATTAAATC	0.996
GATTGCACTG	1.04
CATTATAAGT	0.987
ACGCGAATTT	1.35
TTTGGCCCGA	1.01

Sequence	switch fluorescence ratio
TCTTGAACAC	1.04
TAATCGTATA	0.97
CGGGCCCGGA	1.01
TATCTTGGTG	1.02
TCCTAGTGTT	1.01
TCTTCGTGGT	1.05
ACTGGCTCCA	1.06
AATCGCATTT	1.05
GACGCTCGCT	1.23
TGCAAATCA	1.26
TGATCCAACG	0.991
CTTACTGGTC	1.03
CCTAGAGCGC	1.09
GCTTCGTGTG	0.999
GTGGGCTATA	0.985
TTATACTA	1
CGAAGTGTCA	0.997
AAATGGTGCC	1
AGTAGCCCCG	0.951
AGCTTTTCG	1.04
TAGTACAATG	1.01
TTAATGCTGA	1.07
TCTAATTCTC	1.06
CGGGATTAAT	1.02
AGTAAACCCT	1.2
GCTTTCATCT	0.986

Sequence	switch fluorescence ratio
CAGCGCATGG	1.35
ACCAGCGCTT	1.02
CGGGTAGGCC	0.983
TAATTGTTTG	1.04
GTCTAGACCT	1.05
TTAGATGAAA	0.993
AAGCTGTGTT	1.04
TTGGCTGTA	1
CGACTGGAGT	1.06
ACGTAACGAT	1.33
ATGCGTGTTC	0.991
TGTGTGTGAT	1.02
GCCGATATGA	0.977
GTCCCACCTT	1.06
TCAAAGCAAC	3.44
AGCTTCTTG	1.01
AGAATGATGC	0.993
AGTACCTTCA	2.1
GATACATTGG	0.992
ACGTCTGCCC	0.975
TTCCATAGAC	1.1
GCAGCTGTCG	1
TTAGGTTTTA	1.03
TGGTACATTC	1.06
ACCCGTTGAA	1.03
GTCCAAGGGA	1.06

Sequence	switch fluorescence ratio
TCGGACTAAT	1.24
CGCCGGATAA	1.1
TGTTCGTGT	0.991
GGTATGGTTG	0.988
AAAAGAAAAC	1.08
CAAGCTTCAG	0.983
TTGCCAGTAG	0.993
CGGTTTAACA	1.02
CAGGATAAGA	1.01
GCCGAAAAGG	0.985
GATATTCTCA	0.995
TCAACACCCC	1.17
TTGTTGATAG	0.968
GAGCCTGGCC	0.995
TTTTTCAAT	1
TATTTCTACA	1.05
GTTTCCGGTT	1.05
TCAGGTCGGG	0.983
CAGCAGGGCG	0.999
CTTTACAACC	1.08
ATTTAGGCCT	0.999
GCTGGTCGGC	1.03
GGATTTCGCG	0.972
TTGGTTCATC	1.01
ACTATTTGTG	1.01
GCGGCAATTT	1.08

Sequence	switch fluorescence ratio
AAGTTTCGAT	1.03
CGGTGTCTGC	1.07
AAGTTCCTTG	0.961
CCTGTTAAGA	1
ATGGAATGTT	1.01
TACGTTAGTG	1
GAGCGGTCAT	1.03
GAATTTAGC	1.02
GCCCCTTCAT	1.04
CACGGAAGAG	1.04
GACATTCCCG	1.08
GATCGTCACC	1.05
TGCTTGACA	0.996
CATGACATAC	1.46
TGCCCACAGA	1.07
GTAGAGCAC	1.02
AGGGACGTGC	0.946
CGTCAGTTGT	0.977
TAAAGCTTGC	1.07
TGCGTCATGA	0.958
TCGTAATGG	1.46
AAAATAAATA	1.21
AGTGTTAATA	1.03
TCAAGTTAGA	0.985
GGTGATTTAC	0.972
ATGCTGGGT	0.998

Sequence	switch fluorescence ratio
AAGGGTCCGA	1
ATACTCAATG	1.03
TCGCGGAGTG	0.947
TAAGGCAGTG	0.987
ATACCTCC	1.51
TCCAGATATC	0.984
TGGACCTGGG	1.1
AGCTGTTAAT	0.954
CACGCAGCTG	1.15
GTAAACCGTT	1.05
CGAGCTCCGT	1.14
CAAAGTCCAG	1.02
GTTTTAGGG	0.998
TCCTCAGGCT	1.39
ATCTCATTCC	1.18
TATCTAAACA	1.13
AATAGACTGC	0.967
TAGGGTCCTG	1.04
TTCACTTCC	2.17
